# Test results published in the supplement of paper PMC8728848.
# This is one part of the list.
# B1: MPA (Maclura pomifera), P18674 (protein)
# chain: GVTFDDGAYTGIREINFEYNSETAIGGLRVTYDLNGMPFVAEDHKSFITGFKPVKISLEFPSEYIVEVSGYVGKVEGYTVIRSLTFKTNKQTYGPYGVTNGTPFSLPIENGLIVGFKGSIGYWLDYFSIYLSL
# Legend:
# Test in all cases: glycan array binding signal (z-score within array); higher = stronger binding
# Conditions in all cases: glycan notation: IUPAC condensed, linker removed
# [1] = target: Fuc(a1-2)Gal6S(b1-3)GlcNAc
# Procedure, shortened: (§1)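 The Consortium for Functional Glycomics database supplied 3228 glycan arrays, of which those lacking an available protein sequence were dropped. The binding signal, a within-array Z-score, was averaged across arrays of the same protein sequence and across linkers. Negative scores can be read as non-binding.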
# [2] = target: Fuc(a1-2)Gal6S(b1-3)GlcNAc6S
# Procedure, shortened: as §1
# Fuc(a1-2)Gal6S(b1-4)Glc = target: Fuc(a1-2)Gal6S(b1-4)Glc
# Procedure, shortened: as §1
# [3] = target: Fuc(a1-2)Gal6S(b1-4)Glc6S
# Procedure, shortened: as §1
# Fuc(a1-2)[Gal(a1-3)]Gal = target: Fuc(a1-2)[Gal(a1-3)]Gal
# Procedure, shortened: as §1
# [4] = target: Fuc(a1-2)[Gal(a1-3)]Gal(b1-3)GalNAc
# Procedure, shortened: as §1
# [5] = target: Fuc(a1-2)[Gal(a1-3)]Gal(b1-3)GalNAc(b1-3)Gal(a1-4)Gal(b1-4)Glc
# Procedure, shortened: as §1
# [6] = target: Fuc(a1-2)[Gal(a1-3)]Gal(b1-3)GlcNAc
# Procedure, shortened: as §1
# [7] = target: Fuc(a1-2)[Gal(a1-3)]Gal(b1-3)GlcNAc(b1-2)Man(a1-3)[Fuc(a1-2)[Gal(a1-3)]Gal(b1-3)GlcNAc(b1-2)Man(a1-6)]Man(b1-4)GlcNAc(b1-4)GlcNAc
# Procedure, shortened: as §1
# [8] = target: Fuc(a1-2)[Gal(a1-3)]Gal(b1-3)GlcNAc(b1-2)Man(a1-3)[Fuc(a1-2)[Gal(a1-3)]Gal(b1-3)GlcNAc(b1-2)Man(a1-6)]Man(b1-4)GlcNAc(b1-4)[Fuc(a1-6)]GlcNAc
# Procedure, shortened: as §1
# [9] = target: Fuc(a1-2)[Gal(a1-3)]Gal(b1-3)GlcNAc(b1-3)GalNAc
# Procedure, shortened: as §1
# [10] = target: Fuc(a1-2)[Gal(a1-3)]Gal(b1-3)GlcNAc(b1-6)GalNAc
# Procedure, shortened: as §1
# [11] = target: Fuc(a1-2)[Gal(a1-3)]Gal(b1-4)Glc
# Procedure, shortened: as §1
# [12] = target: Fuc(a1-2)[Gal(a1-3)]Gal(b1-4)GlcNAc
# Procedure, shortened: as §1
# [13] = target: Fuc(a1-2)[Gal(a1-3)]Gal(b1-4)GlcNAc(b1-2)Man
# Procedure, shortened: as §1
# [14] = target: Fuc(a1-2)[Gal(a1-3)]Gal(b1-4)GlcNAc(b1-2)Man(a1-3)[Fuc(a1-2)[Gal(a1-3)]Gal(b1-4)GlcNAc(b1-2)Man(a1-6)]Man(b1-4)GlcNAc(b1-4)GlcNAc
# Procedure, shortened: as §1
# [15] = target: Fuc(a1-2)[Gal(a1-3)]Gal(b1-4)GlcNAc(b1-2)Man(a1-3)[Fuc(a1-2)[Gal(a1-3)]Gal(b1-4)GlcNAc(b1-2)Man(a1-6)]Man(b1-4)GlcNAc(b1-4)[Fuc(a1-6)]GlcNAc
# Procedure, shortened: as §1
# [16] = target: Fuc(a1-2)[Gal(a1-3)]Gal(b1-4)GlcNAc(b1-3)GalNAc
# Procedure, shortened: as §1
# [17] = target: Fuc(a1-2)[Gal(a1-3)]Gal(b1-4)GlcNAc(b1-6)GalNAc
# Procedure, shortened: as §1
# [18] = target: Fuc(a1-2)[Gal(a1-3)]Gal(b1-4)[Fuc(a1-3)]Glc
# Procedure, shortened: as §1
# [19] = target: Fuc(a1-2)[Gal(a1-3)]Gal(b1-4)[Fuc(a1-3)]GlcNAc
# Procedure, shortened: as §1
# [20] = target: Fuc(a1-2)[Gal(a1-3)]Gal(b1-4)[Fuc(a1-3)]GlcNAc(b1-3)GalNAc
# Procedure, shortened: as §1
# [21] = target: Fuc(a1-2)[Gal(a1-4)]Gal(b1-4)GlcNAc
# Procedure, shortened: as §1
# [22] = target: Fuc(a1-2)[GalNAc(a1-3)]Gal
# Procedure, shortened: as §1
# [23] = target: Fuc(a1-2)[GalNAc(a1-3)]Gal(b1-3)GalNAc(a1-3)[Fuc(a1-2)]Gal(b1-4)GlcNAc
# Procedure, shortened: as §1
# [24] = target: Fuc(a1-2)[GalNAc(a1-3)]Gal(b1-3)GalNAc(b1-3)Gal(a1-4)Gal(b1-4)Glc
# Procedure, shortened: as §1
# [25] = target: Fuc(a1-2)[GalNAc(a1-3)]Gal(b1-3)GlcNAc
# Procedure, shortened: as §1
# [26] = target: Fuc(a1-2)[GalNAc(a1-3)]Gal(b1-3)GlcNAc(b1-2)Man(a1-3)[Fuc(a1-2)[GalNAc(a1-3)]Gal(b1-3)GlcNAc(b1-2)Man(a1-6)]Man(b1-4)GlcNAc(b1-4)GlcNAc
# Procedure, shortened: as §1
# [27] = target: Fuc(a1-2)[GalNAc(a1-3)]Gal(b1-3)GlcNAc(b1-2)Man(a1-3)[Fuc(a1-2)[GalNAc(a1-3)]Gal(b1-3)GlcNAc(b1-2)Man(a1-6)]Man(b1-4)GlcNAc(b1-4)[Fuc(a1-6)]GlcNAc
# Procedure, shortened: as §1
# [28] = target: Fuc(a1-2)[GalNAc(a1-3)]Gal(b1-3)GlcNAc(b1-3)GalNAc
# Procedure, shortened: as §1
# [29] = target: Fuc(a1-2)[GalNAc(a1-3)]Gal(b1-3)GlcNAc(b1-6)GalNAc
# Procedure, shortened: as §1
# [30] = target: Fuc(a1-2)[GalNAc(a1-3)]Gal(b1-4)Glc
# Procedure, shortened: as §1
# [31] = target: Fuc(a1-2)[GalNAc(a1-3)]Gal(b1-4)GlcNAc
# Procedure, shortened: as §1
# [32] = target: Fuc(a1-2)[GalNAc(a1-3)]Gal(b1-4)GlcNAc(b1-2)Man
# Procedure, shortened: as §1
# [33] = target: Fuc(a1-2)[GalNAc(a1-3)]Gal(b1-4)GlcNAc(b1-2)Man(a1-3)[Fuc(a1-2)[GalNAc(a1-3)]Gal(b1-4)GlcNAc(b1-2)Man(a1-6)]Man(b1-4)GlcNAc(b1-4)GlcNAc
# Procedure, shortened: as §1
# [34] = target: Fuc(a1-2)[GalNAc(a1-3)]Gal(b1-4)GlcNAc(b1-2)Man(a1-3)[Fuc(a1-2)[GalNAc(a1-3)]Gal(b1-4)GlcNAc(b1-2)Man(a1-6)]Man(b1-4)GlcNAc(b1-4)[Fuc(a1-6)]GlcNAc
# Procedure, shortened: as §1
# [35] = target: Fuc(a1-2)[GalNAc(a1-3)]Gal(b1-4)GlcNAc(b1-3)Gal(b1-4)GlcNAc
# Procedure, shortened: as §1
# [36] = target: Fuc(a1-2)[GalNAc(a1-3)]Gal(b1-4)GlcNAc(b1-3)Gal(b1-4)GlcNAc(b1-3)Gal(b1-4)GlcNAc
# Procedure, shortened: as §1
# [37] = target: Fuc(a1-2)[GalNAc(a1-3)]Gal(b1-4)GlcNAc(b1-3)GalNAc
# Procedure, shortened: as §1
# [38] = target: Fuc(a1-2)[GalNAc(a1-3)]Gal(b1-4)GlcNAc(b1-3)[Fuc(a1-2)[GalNAc(a1-3)]Gal(b1-4)GlcNAc(b1-6)]GalNAc
# Procedure, shortened: as §1
# [39] = target: Fuc(a1-2)[GalNAc(a1-3)]Gal(b1-4)GlcNAc(b1-6)GalNAc
# Procedure, shortened: as §1
# [40] = target: Fuc(a1-2)[GalNAc(a1-3)]Gal(b1-4)[Fuc(a1-3)]GlcNAc
# Procedure, shortened: as §1
# [41] = target: Fuc(a1-2)[GalNAc(a1-3)]Gal(b1-4)[Fuc(a1-3)]GlcNAc(b1-3)GalNAc
# Procedure, shortened: as §1
# [42] = target: Fuc(a1-2)[GalNAc(a1-4)]Gal(b1-4)GlcNAc
# Procedure, shortened: as §1
# [43] = target: Fuc(a1-2)[GalNAc(b1-3)]Gal
# Procedure, shortened: as §1
binder,measurement,setting,value
B1,glycan array binding signal (z-score),[1],-0.247
same,glycan array binding signal (z-score),[2],1.52
same,glycan array binding signal (z-score),Fuc(a1-2)Gal6S(b1-4)Glc,-0.251
same,glycan array binding signal (z-score),[3],-0.194
same,glycan array binding signal (z-score),Fuc(a1-2)[Gal(a1-3)]Gal,-0.257
same,glycan array binding signal (z-score),[4],-0.242
same,glycan array binding signal (z-score),[5],-0.195
same,glycan array binding signal (z-score),[6],-0.1
same,glycan array binding signal (z-score),[7],-0.085
same,glycan array binding signal (z-score),[8],-0.241
same,glycan array binding signal (z-score),[9],-0.238
same,glycan array binding signal (z-score),[10],-0.204
same,glycan array binding signal (z-score),[11],-0.03
same,glycan array binding signal (z-score),[12],-0.212
same,glycan array binding signal (z-score),[13],-0.187
same,glycan array binding signal (z-score),[14],-0.084
same,glycan array binding signal (z-score),[15],-0.282
same,glycan array binding signal (z-score),[16],-0.257
same,glycan array binding signal (z-score),[17],-0.198
same,glycan array binding signal (z-score),[18],-0.283
same,glycan array binding signal (z-score),[19],-0.157
same,glycan array binding signal (z-score),[20],-0.311
same,glycan array binding signal (z-score),[21],-0.16
same,glycan array binding signal (z-score),[22],-0.232
same,glycan array binding signal (z-score),[23],-0.356
same,glycan array binding signal (z-score),[24],-0.212
same,glycan array binding signal (z-score),[25],-0.175
same,glycan array binding signal (z-score),[26],-0.192
same,glycan array binding signal (z-score),[27],-0.363
same,glycan array binding signal (z-score),[28],-0.034
same,glycan array binding signal (z-score),[29],-0.237
same,glycan array binding signal (z-score),[30],-0.194
same,glycan array binding signal (z-score),[31],-0.227
same,glycan array binding signal (z-score),[32],-0.251
same,glycan array binding signal (z-score),[33],-0.264
same,glycan array binding signal (z-score),[34],-0.195
same,glycan array binding signal (z-score),[35],-0.188
same,glycan array binding signal (z-score),[36],0.144
same,glycan array binding signal (z-score),[37],-0.162
same,glycan array binding signal (z-score),[38],-0.289
same,glycan array binding signal (z-score),[39],-0.18
same,glycan array binding signal (z-score),[40],-0.04
same,glycan array binding signal (z-score),[41],0.127
same,glycan array binding signal (z-score),[42],-0.268
same,glycan array binding signal (z-score),[43],-0.127
